Laboratory results taken from PubChem BioAssay AID1508624 (National Center for Advancing Translational Sciences (NCATS), 2021).
Out of some 48,000 compounds screened, about 120 (0.25%) were called active. Another 4% or so got no clear call; they are omitted. Calls follow the shape of the dose curve; as a rule, active = well fitted activation curve with a large enough effect; inconclusive = small, poorly fitted or top-dose-only effect, or another doubt; inactive = no such curve, though single readings can be large or run the other way. Some of the results follow.

Test: Primary qHTS for Identification of Small Molecule Activators of Huntingtin-Antisense Promoter Activity; also: nearly all actives have a fitted effect of over 55% in size
Details: HEK293 HTT-AS promoter firefly luciferase reporter (activity 0% = vehicle and -100% = no light), 24 h; series mostly up to 57.5 µM; activity change, positive = activation: at the top concentration
Procedure, shortened: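 Firefly luciferase readout (Dual-Glo, 10 min RT) after 24 h, 37 °C compound exposure (final up to 57.5 uM) of HEK293 reporter cells cultured 24 h beforehand; PTC124 at 50 uM final as control inhibitor; activity scaled vehicle 0%, zero RLU -100%.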

Activity change, positive = activation, inactive:
COc1ccc(NC(=O)c2cc(S(=O)(=O)N3CCCC(C)C3)cn2C)c(OC)c1 (centres undefined) -19.9%, COc1ccc(NC(=O)CSc2nc3ccccc3n2CC(=O)N(C)C2CCCCC2)cc1 7.42%, Cc1cc(Cl)ccc1NS(=O)(=O)c1c(C(=O)N2CCCCCC2)c(C)n(C)c1C -17.7%, Cc1ccc(-c2nc3sc(CCNC(=O)c4ccc(F)c(F)c4)c(C)n3n2)cc1 -6.96%, CC1=C(C(=O)Nc2ccccc2Br)C2(CCC(C)CC2)OC1=O (centres undefined) -21.5%, CCCCC12CN3CC(C)(CN(C1)C3c1ccc(OCc3ccccc3)cc1)C2=O (centres undefined) 15.5%, O=C(C1CCN(S(=O)(=O)c2cccs2)CC1)N1CCN(c2ccccc2F)CC1 -19.6%, Cc1ccc(CNC(=O)CCCCCn2c(=O)c3sccc3n(CC(=O)N3CCCCC3C)c2=O)cc1 (centres undefined) 8.28%, FC(F)(F)c1cccc(Nc2nc3nonc3nc2Nc2ccc(Cl)cc2)c1 -93.5%, Cc1ccccc1NC(=O)c1c(C)oc2ccc(O)c(CN3CCCCCC3)c12 -36.4%, CCC(CC)C(=O)Nc1ccc(S(=O)(=O)N2CCC(c3nc4ccccc4s3)CC2)cc1 -19.6%, Cc1nc(-c2ccc(S(=O)(=O)N3CCN(c4ccccc4F)CC3)cc2)co1 -29.9%, Cc1ccccc1NC(=O)c1sc2nc(-c3cc4ccccc4oc3=O)[nH]c(=O)c2c1C -9.1%, CNC(=O)c1c(I)c(NC(C)=O)c(I)c(C(=O)O)c1I 0.746%, CCN(C(=O)Cn1c(C(=O)OC)cc2sccc21)c1cccc(C)c1 -14.2%, CCCn1cc(S(=O)(=O)c2ccc(C)c(C)c2)c(=O)c2cc(F)c(N3CCCCC3)cc21 -8.1%, CC(C)NC(=O)c1ccc(CSc2nc3ccncc3n2Cc2cccc(F)c2)cc1 -6.1%, CC(C)c1ccc(C2CC(=O)N3CN(C4CCCCC4)CSC3=C2C#N)cc1 (centres undefined) -23%, CCCCN(CCCC)CCCNC(=O)c1cc(-c2ccc(Cl)s2)nc2ccccc12 -11.1%, Cn1ccc2cc(S(=O)(=O)N3CCCC(C(=O)NCc4ccccc4F)C3)ccc21 (centres undefined) -25.6%, Cc1ccccc1-c1nc(CNC(=O)NC2CCCCC2)c(C)o1 -8.63%, CC1=C(C(=O)Nc2ccccc2)C(c2ccc(Br)cc2)n2nc(CCCO)nc2N1 (centres undefined) 4.02%, COc1ccc(-n2ncc3c2ncn2nc(-c4ccc(OC)c(OC)c4)nc32)cc1 -9.25%, COc1ccccc1N1CCN(C(=O)c2nn(C)c3c2CS(=O)(=O)c2ccccc2-3)CC1 -4.72%, COc1cccc(CNC(=O)CN2C(=O)COc3ccc(S(=O)(=O)N4CCCCC4)cc32)c1 -25.3%, CCn1cc2nc(SCc3cc(C)ccc3C)n(Cc3ccc(Cl)cc3)c(=O)c2n1 18%, CCN(CC)c1ccc(CN(C(=O)c2cc(=O)c3ccccc3o2)C2CCS(=O)(=O)C2)cc1 (centres undefined) -15%, C=CC(=O)N1CCc2ccc(-n3c(=O)ccc4cnc5ccc(-c6cnn(C)c6)cc5c43)cc21 -35.6%, Cn1cc(S(=O)(=O)N2CCCC2)cc1C(=O)Nc1ccc(F)cc1F -14.8%, CCOC(=O)c1ccc(NC(=O)Cc2noc3ccc(C)cc23)cc1 8.87%, O=C(CSc1nc2c([nH]c3ccccc32)c(=O)n1-c1ccccc1)N1CCCCC1 -5.3%, CC(C)CCNC(=O)c1cc(-c2cccnc2)nc2ccc(S(=O)(=O)N3CCC(C)CC3)cc12 -6.89%, COc1ccc(NC(=O)c2nnn(-c3ccc(C(C)C)cc3)c2C)c(OC)c1 1.23%, CCCCC1=NC2(CCCC2)C(=O)N1Cc1ccc(-c2ccccc2-c2nn[nH]n2)cc1 -10.8%, COc1ccc(OC)c(-c2noc(N3CCN(c4cccc(C(F)(F)F)c4)CC3)n2)c1 -26.3%, Cc1cccc(-n2c3nc(=O)[nH]c(=O)c-3cc3ccc(Cl)cc32)c1C -44.2%, Cn1c(CN2CCOCC2)nc2cc(NC(=O)c3ccccc3[N+](=O)[O-])ccc21 -15.4%, CCOc1cccc2sc(N3CCN(C(=O)c4ccco4)CC3)nc12 -4.86%, COc1cc(OC)c(NC(=O)c2ccc(-n3cnc4cccnc43)cc2)cc1Cl -16.6%, O=C(NCCCN1CCN(c2ccc(F)cc2)CC1)Nc1ccccc1Cl -17.1%, CC(=O)Nc1cccc(NC(=O)CSc2nccn2Cc2ccccc2)c1 -15.9%, CC1=C(c2ccc(C(C)C)cc2)S(=O)(=O)N=C1N1CCC(C(=O)NCc2ccc(C)o2)CC1 -11%, O=C(NC1CCCCC1)c1ccc(CSc2nc3cccnc3n2Cc2ccccc2)cc1 -25.3%, Cc1ccccc1-c1noc(-c2ccc(NCc3cccnc3)c([N+](=O)[O-])c2)n1 -16.3%, Cc1c(CC(=O)NCCc2ccccc2)c(=O)oc2c(C)c3occ(C(C)(C)C)c3cc12 -8.6%, CC(=O)c1cccc(NC(=O)Cn2ccn3nc(-c4ccccc4)cc3c2=O)c1 2.97%, Cc1cc(Nc2cc(Cl)ccc2C)n2nc(-c3ccccc3)nc2n1 -40.5%, CCOC(=O)c1c(N)n(-c2ccc(OCC)cc2)c2nc3ccccc3nc12 0.0925%, Cc1ccc(CN(Cc2cccn2-c2nnc(N3CCCC3=O)s2)C(=O)Nc2ccccc2Cl)cc1 -20.7%, O=C(COc1ccccc1-c1nc(-c2ccccc2)no1)Nc1ccc([N+](=O)[O-])cc1 -9.21%, Cc1cc(C)c2c(NC(=O)c3ccccc3Cl)c(C(=O)NCc3ccc(Cl)cc3)sc2n1 -39.9%, Cc1nc2c(-c3ccc(F)cc3)c(C)nn2c(C)c1CCC(=O)NCc1ccc(F)cc1 -10.9%, COc1ccc(OCCCn2c(C3CC(=O)N(c4ccc(F)cc4)C3)nc3ccccc32)cc1 (centres undefined) -26.7%, CCOC(=O)c1c(C)[nH]c(CCC(=O)NCc2ccc(OC)cc2OC)c1C -19.3%, COc1ccc(NC(=O)c2cc3c(=O)n(Cc4cccs4)ccc3nc2C)cc1 -11.1%, COc1ccc(-n2c(C)nnc2SCc2nc(-c3ccc(OC)c(OC)c3)no2)cc1 -17.4%, COc1ccc(OC)c(NC(=O)Cn2c(=O)n(-c3cccc(C)c3)c(=O)c3c2c2cc(C)ccc2n3C)c1 -14.8%, CCOC(=O)c1c(C)oc2nc(C)nc(N3CCN(c4cc(Cl)ccc4C)CC3)c12 -29.8%, CCOC(=O)c1cc(OC(=O)c2cc(OC)c(OC)c(OC)c2)n(-c2ccccc2)n1 -16.3%, CCOc1ccc(-n2c(SCC(=O)Nc3cc(C)on3)nc3c([nH]c4ccccc43)c2=O)cc1 -33.9%, CCc1ccccc1N(C)C(=O)Cn1cnc2sc(C)c(S(=O)(=O)N3CCC(C)CC3)c2c1=O 15.3%, COc1cccc(CNC(=O)CCCn2nc(C)c3sc4ccccc4c3c2=O)c1 -1.77%, CCn1c(C(=O)Nc2c(C)cccc2C)cc2sc(Cl)cc21 -11.6%, COc1cccc(NC(=O)N(Cc2c[nH]c3ccccc23)C2CCCCCC2)c1 -13%, CN(C(=O)c1cc2c(Cl)nc3ccccc3c2s1)c1cccc(C(F)(F)F)c1 -17.5%, O=C(Cn1nc(-c2ccccc2)c2c(c1=O)CCCC2)Nc1ccc(F)c(Cl)c1 -28.9%, COc1cccc(-c2noc(COc3ccc(C(C)(C)C)cc3)n2)c1 23.8%, Cc1ccccc1NS(=O)(=O)c1ccc2[nH]cc(C(=O)NC3CCCCC3)c(=O)c2c1 -32.9%, Cc1ccc(NC(=O)c2oc3ccc(S(=O)(=O)N4CCCCCC4)cc3c2C)c(C)c1 0%, CCn1c(=O)c2cc(C(=O)NC3CCC(C)CC3)sc2c2ccccc21 (centres undefined) -16.4%, Cc1ccc(CCNC(=O)CN(c2cc(C)cc(C)c2)S(=O)(=O)c2c(C)noc2C)cc1 -15.7%, COc1ccccc1CNC(=O)CCCn1c(=O)c2ccccc2n(Cc2ccc(F)cc2)c1=O -32.2%, COc1ccccc1Nc1nc(-c2ccc(F)cc2)c2c(n1)-c1ccccc1OC2 -6.13%, COc1ccccc1NC(=O)c1c(C)cc(C)nc1SCC(=O)Nc1ccc(C)c(C)c1 -28.8%, COc1cccc(-n2ccn(CC(=O)NCc3ccc(C)cc3)c(=O)c2=O)c1 -4.99%, Cc1cc(C)c(NS(=O)(=O)c2ccc3c(c2)CC(C)N3C(=O)C2CCC2)c(C)c1 (centres undefined) -33.4%, CCOc1ccc(C2CC(=O)NC(NC(=O)c3cccc(Cl)c3)=N2)cc1 (centres undefined) -7.91%, Cc1ccc(Nc2ccc3cc(S(=O)(=O)N4CCCCC4)ccc3n2)cc1F -21.5%, COc1ccc(C)cc1NC(=O)Cn1c(=O)oc2cc(S(=O)(=O)N3CCCCC3)ccc21 -36.2%, CCOC(=O)c1ccc(NC(=O)CSc2nc(-c3ccc(OC)cc3)cc(C(F)(F)F)c2C#N)cc1 -6.83%, CCn1cc2nc(SCC(=O)Nc3ccc(OC)c(Cl)c3)n(Cc3ccc(OC)cc3)c(=O)c2n1 -28.6%, CC(C)c1noc(N2CCC(COc3ccc(-c4ccc(S(C)(=O)=O)cc4)nc3)CC2)n1 -17.6%, O=C(Cc1ccccc1)N(Cc1cccnc1)c1nc2c(Cl)cccc2s1 -25.5%, COc1ccc(N(CC(=O)N2CCN(c3ccccc3)CC2)S(=O)(=O)c2c(C)nn(C)c2C)cc1 -4.04%, COc1ccc(-c2cc3nc(C)c(CCC(=O)NCc4ccccc4Cl)c(C)n3n2)c(OC)c1 -25.1%, CC(=O)c1ccc(NC(=O)c2cn(-c3ccccc3)nc2-c2ccc(Br)cc2)cc1 -13.3%, O=C(CCC1CCCC1)N1CCc2c([nH]c3ccccc23)C1c1ccc(F)cc1 (centres undefined) -34.3%, CCc1nnc(SC(CC)C(=O)Nc2ccc(OC)c(Cl)c2)c2cc3occc3n12 (centres undefined) -34.5%, N#Cc1nc(COc2ccccc2Cl)oc1NCCc1ccccc1 2.37%, CCc1cccc(C)c1NC(=O)C1CCN(S(=O)(=O)c2c(C)noc2/C=C/c2c(C)cc(C)cc2C)CC1 14.8%, CCOc1ccc(NC(=O)NCCN2CCN(c3cccc(C)c3C)CC2)cc1 -21.3%, CC(=O)n1nc(-c2cccnc2)nc1NCc1ccc(F)cc1 8.06%, O=C1c2oc3ccccc3c(=O)c2C(c2ccc(O)cc2)N1Cc1ccc2c(c1)OCO2 (centres undefined) -16.4%, O=C(c1ccc(Cl)cc1)N1CCC(c2nc3ccccc3o2)CC1 -21.2%
